Assay results reported in the supplement of paper PMC12889115.
The list shows a part of the results. No stated cut-off is given here; in the data, active = 25% or less and inactive = the rest. Single values are uncertain, as repeats are few or missing.

These compounds were tested on Salmonella enterica serovar Typhimurium SL1344 (assay: intramacrophage bacterial GFP load (SAFIRE), percent of DMSO control (% of DMSO); higher = more intracellular bacteria (less inhibition)). Details: 25 µM; system: infected RAW 264.7 macrophages.
Protocol: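 Secondary screen of the 553 primary hits at 25 µM. (i) S. Typhimurium SL1344 grown in Mueller-Hinton broth with 0.5 µg/mL polymyxin B, OD600 read after 18 h. (ii) SAFIRE assay: RAW 264.7 macrophages infected with S. Typhimurium sifB::gfp (MOI 30); compound added 2 h post-infection; cells fixed at 18 h; GFP-positive pixel fraction per macrophage imaged by confocal microscopy and expressed as % of DMSO control.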
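Further: compounds tested were the hits of an earlier 50 µM broth growth screen of a drug-like diversity library run with polymyxin B.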

Intramacrophage bacterial GFP load, inactive:
Cc1c(C(=O)NCC2OCCc3ccccc32)cnn1-c1ncc2c(n1)-c1ccccc1CCC2 (stereo not given) 95.6, CC(C)/C=C/C(=O)NCCN1Cc2ccccc2OC(c2ccccc2F)C1 (stereo not given) 26, CCn1cc(CN2CCC(c3ccc(OC)c(C)c3)Sc3cc(OC)ccc32)c(C)n1 (stereo not given) 115, CCC(=O)N(Cc1cc2c(OC)ccc(OC)c2nc1N1CCOCC1)CC1COc2ccccc2O1 (stereo not given) 74.9, COc1ccc(C(=O)N(Cc2ccncc2)Cc2cccc(OCCc3ccc(F)cc3)c2)cc1OC 68.3
